Data: a collection of fitness landscapes (doi:10.1016/j.celrep.2020.107928)
In all, about 81,000 sequences were measured (“one-hybrid fitness for binding parS DNA”: median about -0.17, highest 2% from about 0.51 on). This is one part of the list.

B1: Caulobacter ParB omega fusion; a variant is named by its letters at X, in order, B8GW30 (parent)
chain: MESVVVGEPGMSEGRRGLGRGLSALLGEVDAAPAQAPGEQLGGSREAPIEILQRNPDQPRRTFREEDLEDLSNSIREKGVLQPILVRPSPDTAGEYQIVAGERAWRAAQRAGLKTVPIMVRELDDLAVLEIGIIENVQRADLNVLEEALSYKVLMEKFERTQENIAQTIGKSXSHVANXMRLLXLPDEVQSYLVSGELTAXHARAIAAAADPVALAKQIIEGGLSVRETEALARKAPNLSAGKSKGGRPPRVKDTDTQALESDLSSVLGLDVSIDHRGSTGTLTITYATLEQLDDLCNRLTRGI

Variants of: B1
Test: one-hybrid fitness for binding parS DNA (scaled: cognate 1, non-cognate 0); higher = stronger binding
Conditions: with parS DNA site
In short: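 Bacterial one-hybrid selection in E. coli USO rpoZ- hisB- pyrF- with a HIS3 reporter carrying the site 19 bp from the promoter, screening Caulobacter ParB libraries with four specificity codons randomised (NNS). Cells grew 48 hours at 37°C on M9-minus-histidine plus 0.1 mM IPTG and 5 mM 3-AT. Plasmids before and after selection were Illumina-sequenced, three replicate libraries pooled, and variants under 10 reads dropped. Fitness is the log change in variant-to-wild-type read ratio, rescaled to cognate 1, non-cognate 0.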

one-hybrid fitness for binding parS DNA, 0.825:
RVRT

one-hybrid fitness for binding parS DNA, 0.95:
RVMC

one-hybrid fitness for binding parS DNA, ≤ 0.2:
KSQQ
NPEC
CWHV
PEGS
QVMC
GSKG
SYTW
IQTN
TKNK
RASV
NCWG
SDWG
GKTG
AWPK
QLMI
CGAW
WDDL
DWSD
DRSH
ESTD
LFLR
YGMR
HYGP
ACEY
TNCW
QCEV
NAVC
LIMY
ECKA
NITV
THRM
HTIS
ALST
NDGC
SDMR
KMRA
TYRT
WYVL
PSQR
SYGD
DHGK
DPVR
ITGC
AARV
QVYT
IEPF
SRSM
CRPY
LSAA
AHHT
SETL
LRIF
IITM
ASMF
RRPL
AWSF
HVKC
CTRS
HPWS
KEPG
RGCE
YYMR
MDRG
KRAK
ICLT
FRMR
RGYW
SDTC
CNNM
MNMS
NQIG
NYVT
HQIT
ECSL
NSWT
VNLA
QYVN
ILAW
GELS
HIVF
QPLY
SLQR
QNTF
ENAK
HCVS
SVQC
QTSQ
HVLC
LWRH
FHHS
LLHG
DFDT
NMDD
NNPF
RECD
IVRV
VCIL
SIHD
PYDG
FSHT
VTKA
PPYD
YHSN
GFWS
PEEL
DRTI
HAIV
GLSS
VKNG
QKQL
PTNC
VEAL
TSDV
GRFV
MTPC
VAIH
GKSP
NQSW
SHMR
RRLW
GSCV
QKQE
ESKS
QGIV
SRAQ
SRSV
QKRK
ARTM
WTAS
SKPS
SSSV
NCSG
KWMV
KLLI
PMTI
VSCI
TESE
PVEF
RPYP
HQTE
STKA
VWRR
NTSL
RDAQ
EDMY
PGRP
LRSL
RHIM
HEGW
ELVR
IIRY
CVTC
QHLQ
YCAQ
VNKV
QSTY
YTGR
QIPS
HVKF
TIPL
QRGF
RYVE
CKSE
SVIY
INVC
QILY
TKNR
FKAR
TWTI
PPFM
NITK
SEPM
QILS
FCHR
VLCG
WCNY
SVFF
LILM
TLSR
TTAI
TGYV
YVYM
HYTT
WLIK
IEER
QYGI
LDAS
LPRV
TRGN
VITK
RYQQ
LVQS
RKHI
EHEF
NAAQ
CSHR
NLVT
HNWD
KLVQ
LNAA
KATR
QRIG
ETEY
IADY
TKRI
EIDT
HGFS
CSSY
ITSE
PNNC
QIQC
TVKV
PFIY
NCAR
RGMN
GNYI
GDHK
PNVG
DAIG
PWFC
GQTR
TYDR
AVFT
SWFV
GTHD
ELTR
KQGS
ACET
IDVW
SGFS
VLLV
FFAT
TDGT
VGNR
YMNM
RDLF
AHPC
QKTD
SSRM
RFSD
FWSR
NPSD
TSMW
VVHV
VIHR
EWHS
MHFR
TCYC
VSKR
APTT
QLKS
ARPD
VTCG
PHHI
RLRP
MGNY
QTDD
SNRV
RDCM
DGVY
KCVR
MYVR
NLLV
KVEH
CHAD
VSYT
FHSR
QDCF
MYKY
CCLG
LHPY
VSEP
WAFS
IVAS
NAKV
SNQW
CDCM
DRCT
ARHV
RFEK
TDCS
MLRT
DVRY
WDPE
TPDK
VRVA
GPCM
HHAP

one-hybrid fitness for binding parS DNA, 0.864:
RFMG

one-hybrid fitness for binding parS DNA, 0.771:
RGSG
RIEG

one-hybrid fitness for binding parS DNA, 0.304:
DGHH

one-hybrid fitness for binding parS DNA, 0.868:
RWQS

one-hybrid fitness for binding parS DNA, 0.225:
HRMC

one-hybrid fitness for binding parS DNA, 0.89:
RQEG

one-hybrid fitness for binding parS DNA, 0.592:
RTFA

one-hybrid fitness for binding parS DNA, 0.704:
RRMS

one-hybrid fitness for binding parS DNA, 0.206:
RMVP

one-hybrid fitness for binding parS DNA, 0.223:
RLRH

one-hybrid fitness for binding parS DNA, 0.958:
RKIS

one-hybrid fitness for binding parS DNA, 0.204:
YNGW

one-hybrid fitness for binding parS DNA, 0.424:
RHQY

one-hybrid fitness for binding parS DNA, 0.948:
RVES

one-hybrid fitness for binding parS DNA, 0.451:
RIKN
